Measured values as given in PubChem BioAssay AID256 (DTP/NCI, 2004).
Inconclusive results and toxic doses are left out. For part of its entries the source gives two or more results. The other results are left out here. An entry can have further records. Results that share an entry are repeats in other runs, samples, wells, individuals or studies. What stands in brackets tells the records apart. Letters count within one entry.

Tested on: CD2F1 mice, L1210 leukemia ip, survival T/C
Assay: NCI In Vivo Anticancer Drug Screen. Data for tumor model L1210 Leukemia (intraperitoneal) in CD2F1 (CDF1) mice
Conditions: higher = longer survival
Outline: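 Ratio T/C, where T is the treated-group value and C the vehicle-dosed control value, from mice implanted with a transplantable tumor.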

With CCc1ncnc2cc(OCC3CO3)c(OC)cc12 (stereo not given) the T/C (endpoint: median survival time, dose: 5.0 mg/kg/injection, schedule: Q03DX003 (ip), vehicle: saline) was 117 % of control and 158 % of control.

In the case of NC(C/[N+]([O-])=N/O)C(=O)O (stereo not given), the T/C (endpoint: mean survival time, dose: 450.0 mg/kg/injection, schedule: Q04DX003 (ip), vehicle: alkali diluted with saline) is reported as 118 % of control and 179 % of control.

CCOC(=O)C1=C(Nc2ccc(OC)cc2)C(N)=NC1=N was tested, and the T/C (endpoint: median survival time, dose: 166.7 mg/kg/injection, schedule: Q01DX005 (ip), vehicle: saline) was 113 % of control and 156 % of control.

With C[C@H](N)C(=O)N[C@@H]1[C@H]2C(=C(O)C[C@@H](O)[C@@H]2O)C(=O)O[C@]1(C)C(Cl)Cl the T/C (endpoint: median survival time, dose: 3.0 mg/kg/injection, schedule: Q01DX009 (ip), vehicle: saline) was 117 % of control and 192 % of control.

Nc1nc2ccc(NCc3ccc(C(=O)NC(CCC(=O)O)C(=O)O)cc3)cc2c(=O)[nH]1 (stereo not given) was tested, and the T/C (endpoint: median survival time, dose: 100.0 mg/kg/injection, schedule: Q01DX009 (ip), vehicle: saline with Tween-80) was 112 % of control, 121 % of control, 165 % of control.

In the case of Nc1nc(=S)c2ncn(C3CC(O)C(CO)O3)c2[nH]1 (stereo not given), the T/C (endpoint: mean survival time, dose: 266.0 mg/kg/injection, schedule: Q01DX009 (ip), vehicle: water) is reported as 124 % of control and 154 % of control and the T/C (endpoint: mean survival time, dose: 320.0 mg/kg/injection, schedule: Q08DX002 (ip), vehicle: saline) is reported as 113 % of control [sample A] and 158 % of control [sample B].

With CCCOP(=O)(N1CC1(C)C)N1CC1(C)C (stereo not given) the T/C (endpoint: mean survival time, dose: 50.0 mg/kg/injection, schedule: Q04DX003 (ip), vehicle: saline) was 120 % of control and 159 % of control.

In the case of NC(=O)c1csc(C2OC(COP(=O)(O)O)C(O)C2O)n1 (stereo not given), the T/C (endpoint: mean survival time, dose: 100.0 mg/kg/injection, schedule: Q01DX005 (ip), vehicle: water) is reported as 121 % of control and 186 % of control.

For O/N=C/C1CCCC[N-]1.O/N=C/C1CCCC[N-]1.O/N=C/C1CCCC[N-]1.[Cu] (stereo not given), the T/C (endpoint: median survival time, dose: 3.0 mg/kg/injection, schedule: Q03HX024 (ip), vehicle: saline) was 100 % of control and 566 % of control.
